Data reported in PMC3040265 (Biochimica et biophysica acta, 2010).

Key:
[1] = molecular target: (wild type) ferritin heavy chain (human, UniProt P02794); test: native gel or EMSA
native gel or EMSA = molecular target: the molecule itself; test: native gel or EMSA

UniProt P02794, sequence (P02794 whole entry): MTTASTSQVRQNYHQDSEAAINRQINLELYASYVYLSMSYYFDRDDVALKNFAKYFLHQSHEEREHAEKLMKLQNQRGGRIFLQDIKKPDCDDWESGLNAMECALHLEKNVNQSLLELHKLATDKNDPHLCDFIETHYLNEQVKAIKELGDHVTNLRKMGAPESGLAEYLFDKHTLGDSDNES

B1: wild type ferritin light chain (natural protein)
chain: not shown
binding result [1]: binds
binding result (native gel or EMSA): binds
